B1: recombinant human ApoE2 (natural protein)
chain: not shown
notes: also called purified recombinant ApoE
B2: recombinant human ApoE4 (natural protein)
chain: not shown
notes: as for B1

Molecular target: T1, recombinant human ACE2 protein (human, UniProt Q9BYF1, biotinylated (site not stated; said in the results only))
T1 construct: also called biotinylated ACE2; not shown: Fc (mouse IgG)
Test: BLI; Octet RED96; human ACE2 (20 µg/ml) held on the sensor (methods: anti-mIgG Fc Capture probe; results: biotinylated ACE2 on streptavidin biosensors); ApoE at 735.3-5882 nM in PBST; 1:1 Langmuir model
Settings: both partners purified

T1 sequence (Q9BYF1 18-740): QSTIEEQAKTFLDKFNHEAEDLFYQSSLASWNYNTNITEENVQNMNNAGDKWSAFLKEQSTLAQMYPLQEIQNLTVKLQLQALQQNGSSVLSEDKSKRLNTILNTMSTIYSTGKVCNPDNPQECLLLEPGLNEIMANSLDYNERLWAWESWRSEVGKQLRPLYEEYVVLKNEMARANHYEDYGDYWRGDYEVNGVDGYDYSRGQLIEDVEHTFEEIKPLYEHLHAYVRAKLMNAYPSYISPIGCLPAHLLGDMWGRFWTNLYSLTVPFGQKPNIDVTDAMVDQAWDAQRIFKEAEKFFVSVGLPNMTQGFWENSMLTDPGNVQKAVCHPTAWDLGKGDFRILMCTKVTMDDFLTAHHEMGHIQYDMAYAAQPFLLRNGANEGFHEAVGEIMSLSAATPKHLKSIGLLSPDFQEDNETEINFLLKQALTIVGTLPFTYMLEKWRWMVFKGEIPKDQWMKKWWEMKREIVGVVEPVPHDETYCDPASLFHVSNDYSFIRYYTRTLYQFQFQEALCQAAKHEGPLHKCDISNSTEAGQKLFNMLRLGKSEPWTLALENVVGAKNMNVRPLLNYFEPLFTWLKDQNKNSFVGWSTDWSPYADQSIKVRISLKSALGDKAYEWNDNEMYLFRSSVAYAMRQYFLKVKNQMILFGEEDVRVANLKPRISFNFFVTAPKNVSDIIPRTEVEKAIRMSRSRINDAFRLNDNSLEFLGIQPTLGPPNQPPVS

Row | Binder | binding result
1 | B1 | binds
2 | B2 | binds

Source: paper PMC9910247 (Journal of Translational Medicine, 2023)
